# Experimental data: the supplement of paper PMC8728848
# This is one part of the list.
# B1: Threefoil (Haloarcula marismortui) (protein)
# chain: GSSHHHHHHHHHHSSGLVPRGSHMGDGYYKLVARHSGKALDVENASTSDGANVIQYSYSGGDNQQWRLVDLGDGYYKLVARHSGKALDVENASTSDGANVIQYSYSGGDNQQWRLVDLGDGYYKLVARHSGKALDVENASTSDGANVIQYSYSGGDNQQWRLVDL
# How the values were obtained:
# Assay in all cases: glycan array binding signal (z-score within array); higher = stronger binding
# Conditions in all cases: glycan notation: IUPAC condensed, linker removed
# [1] = biological target: Neu5Ac(a2-6)Gal(b1-4)GlcNAc(b1-3)Gal(b1-4)GlcNAc(b1-2)Man(a1-3)[Neu5Ac(a2-6)Gal(b1-4)GlcNAc(b1-3)Gal(b1-4)GlcNAc(b1-2)Man(a1-6)]GalNAc
# In short: (§1)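 The binding signal is a Z-score computed within each array. Data were drawn from 3228 arrays in the Consortium for Functional Glycomics database, restricted to those with a known protein sequence. Scores were averaged over arrays of the same protein sequence at different concentrations or buffers, and over linkers, and negative values can be taken as non-binding.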
# [2] = biological target: Neu5Ac(a2-6)Gal(b1-4)GlcNAc(b1-3)Gal(b1-4)GlcNAc(b1-3)Gal(b1-4)GlcNAc
# In short: as §1
# [3] = biological target: Neu5Ac(a2-6)Gal(b1-4)GlcNAc(b1-3)Gal(b1-4)GlcNAc(b1-3)Gal(b1-4)GlcNAc(b1-2)Man(a1-3)[Neu5Ac(a2-6)Gal(b1-4)GlcNAc(b1-3)Gal(b1-4)GlcNAc(b1-3)Gal(b1-4)GlcNAc(b1-2)Man(a1-6)]GalNAc
# In short: as §1
# [4] = biological target: Neu5Ac(a2-6)Gal(b1-4)GlcNAc(b1-3)Gal(b1-4)GlcNAc(b1-3)GalNAc
# In short: as §1
# [5] = biological target: Neu5Ac(a2-6)Gal(b1-4)GlcNAc(b1-3)Gal(b1-4)GlcNAc(b1-3)[Neu5Ac(a2-6)Gal(b1-4)GlcNAc(b1-3)Gal(b1-4)GlcNAc(b1-6)]GalNAc
# In short: as §1
# [6] = biological target: Neu5Ac(a2-6)Gal(b1-4)GlcNAc(b1-3)Gal(b1-4)GlcNAc(b1-6)[Gal(b1-3)]GalNAc
# In short: as §1
# [7] = biological target: Neu5Ac(a2-6)Gal(b1-4)GlcNAc(b1-3)Gal(b1-4)[Fuc(a1-3)]GlcNAc(b1-3)Gal(b1-4)[Fuc(a1-3)]GlcNAc
# In short: as §1
# [8] = biological target: Neu5Ac(a2-6)Gal(b1-4)GlcNAc(b1-3)GalNAc
# In short: as §1
# [9] = biological target: Neu5Ac(a2-6)Gal(b1-4)GlcNAc(b1-3)[Neu5Ac(a2-6)Gal(b1-4)GlcNAc(b1-6)]GalNAc
# In short: as §1
# [10] = biological target: Neu5Ac(a2-6)Gal(b1-4)GlcNAc(b1-6)GalNAc
# In short: as §1
# [11] = biological target: Neu5Ac(a2-6)Gal(b1-4)GlcNAc(b1-6)[Gal(b1-3)GlcNAc(b1-3)]Gal(b1-4)Glc
# In short: as §1
# [12] = biological target: Neu5Ac(a2-6)Gal(b1-4)GlcNAc(b1-6)[Gal(b1-3)]GalNAc
# In short: as §1
# [13] = biological target: Neu5Ac(a2-6)Gal(b1-4)GlcNAc6S
# In short: as §1
# Neu5Ac(a2-6)GalNAc = biological target: Neu5Ac(a2-6)GalNAc
# In short: as §1
# [14] = biological target: Neu5Ac(a2-6)GalNAc(b1-4)GlcNAc
# In short: as §1
# [15] = biological target: Neu5Ac(a2-6)GalNAc(b1-4)GlcNAc6S
# In short: as §1
# [16] = biological target: Neu5Ac(a2-6)GlcNAc(b1-4)GlcNAc
# In short: as §1
# [17] = biological target: Neu5Ac(a2-6)GlcNAc(b1-4)GlcNAc(b1-4)GlcNAc
# In short: as §1
# Neu5Ac(a2-8)Neu5Ac = biological target: Neu5Ac(a2-8)Neu5Ac
# In short: as §1
# [18] = biological target: Neu5Ac(a2-8)Neu5Ac(a2-3)Gal(b1-3)GalNAc(b1-4)[Neu5Ac(a2-3)]Gal(b1-4)Glc
# In short: as §1
# [19] = biological target: Neu5Ac(a2-8)Neu5Ac(a2-3)Gal(b1-3)GalNAc(b1-4)[Neu5Ac(a2-8)Neu5Ac(a2-3)]Gal(b1-4)Glc
# In short: as §1
# [20] = biological target: Neu5Ac(a2-8)Neu5Ac(a2-3)Gal(b1-4)Glc
# In short: as §1
# [21] = biological target: Neu5Ac(a2-8)Neu5Ac(a2-3)Gal(b1-4)GlcNAc
# In short: as §1
# [22] = biological target: Neu5Ac(a2-8)Neu5Ac(a2-3)[Gal(b1-3)GalNAc(b1-4)]Gal(b1-4)Glc
# In short: as §1
# [23] = biological target: Neu5Ac(a2-8)Neu5Ac(a2-3)[GalNAc(b1-4)]Gal(b1-4)Glc
# In short: as §1
# [24] = biological target: Neu5Ac(a2-8)Neu5Ac(a2-8)Neu5Ac
# In short: as §1
# [25] = biological target: Neu5Ac(a2-8)Neu5Ac(a2-8)Neu5Ac(a2-3)Gal(b1-4)Glc
# In short: as §1
# [26] = biological target: Neu5Ac(a2-8)Neu5Ac(a2-8)Neu5Ac(a2-3)[Gal(b1-3)GalNAc(b1-4)]Gal(b1-4)Glc
# In short: as §1
# [27] = biological target: Neu5Ac(a2-8)Neu5Ac(a2-8)Neu5Ac(a2-3)[GalNAc(b1-4)]Gal(b1-4)Glc
# In short: as §1
# [28] = biological target: Neu5Ac(a2-8)Neu5Ac(a2-8)Neu5Ac(a2-8)Neu5Ac(a2-3)[GalNAc(b1-4)]Gal(b1-4)Glc
# In short: as §1
# [29] = biological target: Neu5Ac(a2-8)Neu5Gc(a2-3)Gal(b1-4)GlcNAc
# In short: as §1
# [30] = biological target: Neu5Ac(b2-6)Gal(b1-4)GlcNAc
# In short: as §1
# Neu5Ac(b2-6)GalNAc = biological target: Neu5Ac(b2-6)GalNAc
# In short: as §1
# [31] = biological target: Neu5Ac9Ac(a2-3)Gal(b1-4)GlcNAc
# In short: as §1
# [32] = biological target: Neu5Ac9Ac(a2-6)Gal(b1-4)GlcNAc
# In short: as §1
# [33] = biological target: Neu5Gc(a2-3)Gal(b1-3)GlcNAc
# In short: as §1
# [34] = biological target: Neu5Gc(a2-3)Gal(b1-3)[Fuc(a1-4)]GlcNAc
# In short: as §1
# Neu5Gc(a2-3)Gal(b1-4)Glc = biological target: Neu5Gc(a2-3)Gal(b1-4)Glc
# In short: as §1
# [35] = biological target: Neu5Gc(a2-3)Gal(b1-4)GlcNAc
# In short: as §1
# [36] = biological target: Neu5Gc(a2-3)Gal(b1-4)GlcNAc(b1-3)Gal(b1-4)GlcNAc(b1-2)Man(a1-3)[Neu5Gc(a2-3)Gal(b1-4)GlcNAc(b1-3)Gal(b1-4)GlcNAc(b1-2)Man(a1-6)]Man(b1-4)GlcNAc(b1-4)GlcNAc
# In short: as §1
# [37] = biological target: Neu5Gc(a2-3)Gal(b1-4)[Fuc(a1-3)]GlcNAc
# In short: as §1
# [38] = biological target: Neu5Gc(a2-6)Gal(b1-4)GlcNAc
# In short: as §1
# Neu5Gc(a2-6)GalNAc = biological target: Neu5Gc(a2-6)GalNAc
# In short: as §1
# [39] = biological target: Neu5Gc(a2-8)Neu5Ac(a2-3)Gal(b1-4)GlcNAc
# In short: as §1
# [40] = biological target: Neu5Gc(a2-8)Neu5Gc(a2-3)Gal(b1-4)GlcNAc
# In short: as §1
binder,measurement,setting,value
B1,glycan array binding signal (z-score),[1],0.002
same,glycan array binding signal (z-score),[2],-0.154
same,glycan array binding signal (z-score),[3],-0.02
same,glycan array binding signal (z-score),[4],-0.072
same,glycan array binding signal (z-score),[5],-0.073
same,glycan array binding signal (z-score),[6],-0.183
same,glycan array binding signal (z-score),[7],-0.141
same,glycan array binding signal (z-score),[8],-0.163
same,glycan array binding signal (z-score),[9],-0.205
same,glycan array binding signal (z-score),[10],-0.125
same,glycan array binding signal (z-score),[11],-0.212
same,glycan array binding signal (z-score),[12],-0.06
same,glycan array binding signal (z-score),[13],-0.238
same,glycan array binding signal (z-score),Neu5Ac(a2-6)GalNAc,-0.27
same,glycan array binding signal (z-score),[14],-0.193
same,glycan array binding signal (z-score),[15],-0.319
same,glycan array binding signal (z-score),[16],-0.215
same,glycan array binding signal (z-score),[17],-0.141
same,glycan array binding signal (z-score),Neu5Ac(a2-8)Neu5Ac,-0.306
same,glycan array binding signal (z-score),[18],-0.269
same,glycan array binding signal (z-score),[19],-0.063
same,glycan array binding signal (z-score),[20],-0.236
same,glycan array binding signal (z-score),[21],-0.178
same,glycan array binding signal (z-score),[22],-0.146
same,glycan array binding signal (z-score),[23],-0.322
same,glycan array binding signal (z-score),[24],-0.234
same,glycan array binding signal (z-score),[25],-0.261
same,glycan array binding signal (z-score),[26],-0.31
same,glycan array binding signal (z-score),[27],-0.347
same,glycan array binding signal (z-score),[28],-0.069
same,glycan array binding signal (z-score),[29],-0.072
same,glycan array binding signal (z-score),[30],-0.309
same,glycan array binding signal (z-score),Neu5Ac(b2-6)GalNAc,-0.129
same,glycan array binding signal (z-score),[31],-0.252
same,glycan array binding signal (z-score),[32],-0.303
same,glycan array binding signal (z-score),[33],-0.296
same,glycan array binding signal (z-score),[34],-0.1
same,glycan array binding signal (z-score),Neu5Gc(a2-3)Gal(b1-4)Glc,-0.142
same,glycan array binding signal (z-score),[35],-0.297
same,glycan array binding signal (z-score),[36],-0.282
same,glycan array binding signal (z-score),[37],-0.207
same,glycan array binding signal (z-score),[38],-0.253
same,glycan array binding signal (z-score),Neu5Gc(a2-6)GalNAc,-0.171
same,glycan array binding signal (z-score),[39],-0.219
same,glycan array binding signal (z-score),[40],-0.325
